Reference: the supplement of paper PMC11741623
Some of the results follow. Interaction screen of human proteins with wild-type SARS-CoV-2 proteins by split-DHFR complementation in yeast, 1 µg/mL methotrexate. Value = fitness of the pair (three or more lineages) minus that of the viral protein without a human partner, on a scale set by negative (0) and fused positive (1) controls, mean of up to three cultures; higher = more likely to interact. Active = false discovery rate below 0.05 (one-sided t-test) in at least one culture. Nearly all pairs are not hits, and differences among them are mostly noise (correlation between cultures about 0.3); most hits were seen in one culture only. Human sequences are the Swiss-Prot entries looked up by gene name; the clone may be another isoform. NSP2 values were corrected by the authors for a growth advantage. Listed are human proteins with a hit and a random twelfth of the others.

Columns and labels:
Assay in all cases: yeast fitness gain over the viral ORF with no human partner (scaled fitness); higher = more likely to interact
SARS-CoV-2 E = target: SARS-CoV-2 E
Description: (§1)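 Split mouse DHFR complementation in pooled diploid yeast: human ORFeome clones carry one fragment and viral ORFs the other; barcoded lineages compete in 1 µg/mL methotrexate and fitness is read by barcode sequencing in up to three cultures.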

SARS-CoV-2 M = target: SARS-CoV-2 M
Description: as §1

SARS-CoV-2 N = target: SARS-CoV-2 N
Description: as §1

SARS-CoV-2 NSP1 = target: SARS-CoV-2 NSP1
Description: as §1

SARS-CoV-2 NSP10 = target: SARS-CoV-2 NSP10
Description: as §1

SARS-CoV-2 NSP12 = target: SARS-CoV-2 NSP12
Description: as §1

SARS-CoV-2 NSP13 = target: SARS-CoV-2 NSP13
Description: as §1

SARS-CoV-2 NSP14 = target: SARS-CoV-2 NSP14
Description: as §1

SARS-CoV-2 NSP15 = target: SARS-CoV-2 NSP15
Description: as §1

SARS-CoV-2 NSP16 = target: SARS-CoV-2 NSP16
Description: as §1

SARS-CoV-2 NSP2 = target: SARS-CoV-2 NSP2
Description: as §1

SARS-CoV-2 NSP4 = target: SARS-CoV-2 NSP4
Description: as §1

SARS-CoV-2 NSP5 = target: SARS-CoV-2 NSP5
Description: as §1

SARS-CoV-2 NSP6 = target: SARS-CoV-2 NSP6
Description: as §1

SARS-CoV-2 NSP7 = target: SARS-CoV-2 NSP7
Description: as §1

SARS-CoV-2 NSP8 = target: SARS-CoV-2 NSP8
Description: as §1

SARS-CoV-2 NSP9 = target: SARS-CoV-2 NSP9
Description: as §1

SARS-CoV-2 ORF10 = target: SARS-CoV-2 ORF10
Description: as §1

SARS-CoV-2 ORF3A = target: SARS-CoV-2 ORF3A
Description: as §1

SARS-CoV-2 ORF3B = target: SARS-CoV-2 ORF3B
Description: as §1

SARS-CoV-2 ORF6 = target: SARS-CoV-2 ORF6
Description: as §1

SARS-CoV-2 ORF7A = target: SARS-CoV-2 ORF7A
Description: as §1

SARS-CoV-2 ORF7B = target: SARS-CoV-2 ORF7B
Description: as §1

SARS-CoV-2 ORF8 = target: SARS-CoV-2 ORF8
Description: as §1

SARS-CoV-2 ORF9B = target: SARS-CoV-2 ORF9B
Description: as §1

[1] = target: SARS-CoV-2 ORF9Bwu (the 73-codon ORF)
Description: as §1

SARS-CoV-2 S = target: SARS-CoV-2 S
Description: as §1

Measured: yeast fitness gain

B1: TRABD, Q9H4I3 (protein)
chain: MDGEEQQPPHEANVEPVVPSEASEPVPRVLSGDPQNLSDVDAFNLLLEMKLKRRRQRPNLPRTVTQLVAEDGSRVYVVGTAHFSDDSKRDVVKTIREVQPDVVVVELCQYRVSMLKMDESTLLREAQELSLEKLQQAVRQNGLMSGLMQMLLLKVSAHITEQLGMAPGGEFREAFKEASKVPFCKFHLGDRPIPVTFKRAIAALSFWQKVRLAWGLCFLSDPISKDDVERCKQKDLLEQMMAEMIGEFPDLHRTIVSERDVYLTYMLRQAARRLELPRASDAEPRKCVPSVVVGVVGMGHVPGIEKNWSTDLNIQEIMTVPPPSVSGRVSRLAVKAAFFGLLGYSLYWMGRRTASLVLSLPAAQYCLQRVTEARHK
inactive: SARS-CoV-2 E 0.0541 | SARS-CoV-2 M 0.082 | SARS-CoV-2 N 0.165 | SARS-CoV-2 NSP1 = -0.0428 | SARS-CoV-2 NSP10 = -0.0237 | SARS-CoV-2 NSP12 = 0.109 | SARS-CoV-2 NSP13 = 0.0244 | SARS-CoV-2 NSP14 = 0.0587 | SARS-CoV-2 NSP15 = 0.011 | SARS-CoV-2 NSP16 = -0.0352 | SARS-CoV-2 NSP2 = -0.103 | SARS-CoV-2 NSP4 = 0.00276 | SARS-CoV-2 NSP5 = 0.0595 | SARS-CoV-2 NSP6 = -0.00315 | SARS-CoV-2 NSP7 = -0.0117 | SARS-CoV-2 NSP8 = -0.002 | SARS-CoV-2 NSP9 = -0.129 | SARS-CoV-2 ORF10 = -0.00499 | SARS-CoV-2 ORF3A -0.0266 | SARS-CoV-2 ORF3B 0.0389 | SARS-CoV-2 ORF6 = 0.0561 | SARS-CoV-2 ORF7A 0.0233 | SARS-CoV-2 ORF7B -0.0531 | SARS-CoV-2 ORF8 = 0.0479 | SARS-CoV-2 ORF9B 0.00261 | [1] -0.0682 | SARS-CoV-2 S 0.0421

B2: PRDX5, P30044 (protein)
chain: MGLAGVCALRRSAGYILVGGAGGQSAAAAARRYSEGEWASGGVRSFSRAAAAMAPIKVGDAIPAVEVFEGEPGNKVNLAELFKGKKGVLFGVPGAFTPGCSKTHLPGFVEQAEALKAKGVQVVACLSVNDAFVTGEWGRAHKAEGKVRLLADPTGAFGKETDLLLDDSLVSIFGNRRLKRFSMVVQDGIVKALNVEPDGTGLTCSLAPNIISQL
inactive: SARS-CoV-2 E -0.0327 | SARS-CoV-2 M 0.0229 | SARS-CoV-2 N -0.181 | SARS-CoV-2 NSP1 = 0.0056 | SARS-CoV-2 NSP10 = 0.0317 | SARS-CoV-2 NSP12 = -0.22 | SARS-CoV-2 NSP13 = -0.0703 | SARS-CoV-2 NSP16 = 0.0217 | SARS-CoV-2 NSP2 = -0.205 | SARS-CoV-2 NSP4 = 0.115 | SARS-CoV-2 NSP5 = 0.139 | SARS-CoV-2 NSP6 = 0.0936 | SARS-CoV-2 NSP7 = 0.0288 | SARS-CoV-2 NSP8 = -0.0394 | SARS-CoV-2 NSP9 = -0.0945 | SARS-CoV-2 ORF10 = -0.00568 | SARS-CoV-2 ORF3A -0.0369 | SARS-CoV-2 ORF3B 0.0378 | SARS-CoV-2 ORF6 = -0.0208 | SARS-CoV-2 ORF7A -0.00475 | SARS-CoV-2 ORF7B -0.0215 | SARS-CoV-2 ORF8 = 0.0655 | SARS-CoV-2 ORF9B 0.00783 | [1] 0.0199 | SARS-CoV-2 S -0.0698

B3: CNN1, P51911 (protein)
chain: MSSAHFNRGPAYGLSAEVKNKLAQKYDHQREQELREWIEGVTGRRIGNNFMDGLKDGIILCEFINKLQPGSVKKINESTQNWHQLENIGNFIKAITKYGVKPHDIFEANDLFENTNHTQVQSTLLALASMAKTKGNKVNVGVKYAEKQERKFEPGKLREGRNIIGLQMGTNKFASQQGMTAYGTRRHLYDPKLGTDQPLDQATISLQMGTNKGASQAGMTAPGTKRQIFEPGLGMEHCDTLNVSLQMGSNKGASQRGMTVYGLPRQVYDPKYCLTPEYPELGEPAHNHHAHNYYNSA
inactive: SARS-CoV-2 E 0.0941 | SARS-CoV-2 M 0.0401 | SARS-CoV-2 N -0.0344 | SARS-CoV-2 NSP1 = -0.0521 | SARS-CoV-2 NSP10 = -0.103 | SARS-CoV-2 NSP12 = -0.0253 | SARS-CoV-2 NSP13 = -0.00888 | SARS-CoV-2 NSP15 = 0.0216 | SARS-CoV-2 NSP16 = 0.117 | SARS-CoV-2 NSP2 = -0.0511 | SARS-CoV-2 NSP4 = -0.433 | SARS-CoV-2 NSP5 = 0.0593 | SARS-CoV-2 NSP6 = 0.0464 | SARS-CoV-2 NSP7 = -0.141 | SARS-CoV-2 NSP8 = 0.0429 | SARS-CoV-2 NSP9 = -0.00206 | SARS-CoV-2 ORF10 = 0.049 | SARS-CoV-2 ORF3A -0.0807 | SARS-CoV-2 ORF3B -0.0653 | SARS-CoV-2 ORF6 = -0.0087 | SARS-CoV-2 ORF7A -0.069 | SARS-CoV-2 ORF7B 0.0713 | SARS-CoV-2 ORF8 = 0.0385 | SARS-CoV-2 ORF9B -0.0724 | [1] 0.043 | SARS-CoV-2 S -0.00564

B4: COA5, Q86WW8 (protein)
chain: MPKYYEDKPQGGACAGLKEDLGACLLQSDCVVQEGKSPRQCLKEGYCNSLKYAFFECKRSVLDNRARFRGRKGY
inactive: SARS-CoV-2 E 0.0397 | SARS-CoV-2 M -0.0204 | SARS-CoV-2 NSP1 = -0.147 | SARS-CoV-2 NSP10 = 0.0305 | SARS-CoV-2 NSP12 = 0.0555 | SARS-CoV-2 NSP13 = 0.0344 | SARS-CoV-2 NSP14 = 0.151 | SARS-CoV-2 NSP15 = -0.0135 | SARS-CoV-2 NSP16 = 0.0438 | SARS-CoV-2 NSP2 = -0.131 | SARS-CoV-2 NSP4 = 0.0685 | SARS-CoV-2 NSP5 = 0.00897 | SARS-CoV-2 NSP6 = -0.0384 | SARS-CoV-2 NSP7 = -0.0236 | SARS-CoV-2 NSP8 = 0.032 | SARS-CoV-2 NSP9 = -0.0565 | SARS-CoV-2 ORF10 = 0.091 | SARS-CoV-2 ORF3A 0.00298 | SARS-CoV-2 ORF3B 0.0281 | SARS-CoV-2 ORF6 = 0.0263 | SARS-CoV-2 ORF7A -0.0825 | SARS-CoV-2 ORF7B -0.00608 | SARS-CoV-2 ORF8 = -0.00416 | SARS-CoV-2 ORF9B 0.0261 | [1] -0.0546 | SARS-CoV-2 S 0.0285
